# In the supplement of paper PMC12217912:
# Some of the results follow. The full chains were built here from the parent and the listed change. Inactive controls read about 0.05.
# B1: TEV protease; numbered along this chain (parent)
# chain: MGESLFKGPRDYNPISSSICHLTNESDGHTTSLYGIGFGPFIITNKHLFRRNNGTLVVQSLHGVFKVKDTTTLQQHLVDGRDMIIIRMPKDFPPFPQKLKFREPQREERICLVTTNFQTKSMSSMVSDTSCTFPSGDGIFWKHWIQTKDGQCGSPLVSTRDGFIVGIHSASNFTNTNNYFTSVPKNFMELLTNQEAQQWVSGWRLNADSVLWGGHKVFMVKPEEPFQPVKEATQL
# Variants of: B1
# Test: raw area under fraction-flipped curve 0-4 h after induction (AUC4h, not background-subtracted), DNA-recorder readout of cleavage of the substrate (dimensionless); higher = more cleavage of the substrate by the protease variant
# Details: temperature: 34 °C; time window: 0-4 h after rhamnose induction
# Procedure: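 In vivo DNA recorder in E. coli TOP10(DE3) ΔrhaA at 34 °C. Each TEVp single-site mutant (parent TEVp 0) is paired with a single-site variant of the 7-mer TEVs (canonical ENLYFQ|S). The substrate sits between flexible linkers in a Bxb1-sfGFP-TEVs-SsrA fusion, so cleavage stabilises Bxb1 and speeds flipping of a recombination array, read by NGS. The value is the raw area under the fraction-flipped curve over 0-4 h after rhamnose induction (AUC4h), with ≥20 reads per time point. It is not background-subtracted; inactive controls average about 0.047.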
# 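Further: Bxb1 expression induced with 0.2% (w/v) L-rhamnose at OD600 near 0.5, cultures sampled hourly, flipped fraction per protease–substrate barcode pair counted by paired-end Illumina sequencing.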
Variant,area with substrate ENLYFQC,area with substrate ENLYFQG,area with substrate ENLYFQI,area with substrate ENLYFQL,area with substrate ENLYFQM,area with substrate ENLYFQP,area with substrate ENLYFQR,area with substrate ENLYFQS,area with substrate ENLYFQW,area with substrate ENLYFQH
S135L,0.0543,0.061,0.0526,0.06,0.0616,0.0726,0.0541,0.075,0.0536,–
S171K,0.125,–,–,0.0515,0.0396,–,–,0.0963,0.0674,0.0674
E195H,0.117,–,–,–,–,0.0458,–,0.102,–,–
F6N,0.0999,–,–,–,–,–,–,0.0771,0.0551,0.0738
S124C,0.107,0.0925,0.0615,0.0223,0.1,0.0582,0.0532,0.1,0.0521,–
T119A,0.138,–,–,–,0.11,0.0586,0.0641,0.102,0.0735,0.0724
T119G,0.111,0.116,–,–,–,–,–,0.105,–,0.091
S209A,0.144,0.11,0.0554,–,–,–,–,0.105,0.0774,–
S209E,0.123,0.109,0.0489,–,0.101,0.061,–,0.109,–,0.0975
N193K,0.0926,0.0706,0.142,–,–,–,0.0627,0.0941,0.065,–
P94N,0.133,–,0.0404,0.058,–,0.0381,0.0656,0.103,–,–
P93D,0.103,0.0796,0.0573,0.0636,0.0913,–,0.0564,0.101,0.0827,–
P93L,0.144,–,–,0.0285,0.107,–,0.0585,0.115,–,–
G8L,0.132,–,–,0.059,0.103,–,–,0.103,–,–
R81A,0.086,–,0.063,0.0606,–,–,0.062,0.0984,0.0609,0.0795
S154A,0.0995,0.0989,–,0.0512,0.0815,0.0677,0.06,0.0904,–,–
S154N,0.131,–,–,–,–,–,–,0.13,–,–
S154D,0.0709,0.0601,–,–,0.0662,0.0559,0.0437,0.0645,–,–
S154V,0.0986,0.0958,0.0667,0.0669,0.0765,–,–,0.0957,–,0.0652

Variant,area with substrate ENLYFQC,area with substrate ENLYFQG,area with substrate ENLYFQI,area with substrate ENLYFQL,area with substrate ENLYFQM,area with substrate ENLYFQP,area with substrate ENLYFQR,area with substrate ENLYFQS,area with substrate ENLYFQW,area with substrate ENLYFQH
N177G,0.0811,–,–,0.0502,0.0486,–,–,0.0725,–,–
N177T,0.173,0.147,0.0611,0.0515,0.114,–,0.0629,0.156,0.0732,0.105
Y12R,0.0973,–,0.0542,0.0545,0.0739,–,0.0662,0.102,0.0584,–
L61F,–,0.0798,–,–,0.0848,–,–,0.0934,0.0659,–
L61T,0.118,–,–,–,0.0585,0.0621,0.0754,0.0983,–,–
L99V,0.0974,–,0.0545,0.0643,0.0821,–,0.0622,0.0954,0.0637,0.113
I84V,0.123,0.132,0.054,0.0467,0.126,–,0.0459,0.11,–,–
T159P,0.104,–,–,–,–,–,–,0.112,–,–
T132K,0.0603,–,–,–,–,–,–,0.0565,0.0293,–
T132N,0.0771,0.084,–,–,0.0684,0.0624,0.0611,0.0801,–,0.0589
L77R,0.0705,0.0668,0.0565,0.059,–,–,0.0594,0.0693,–,–
D79E,0.07,0.0991,–,0.084,–,0.0598,–,0.102,0.0449,–
G2I,0.167,–,–,0.0449,0.124,–,0.0502,0.15,0.0453,0.112
V67G,0.059,0.0739,–,–,0.0323,–,–,0.0625,0.0536,–
Q59H,0.13,0.0813,0.0643,0.0577,–,–,0.0613,0.107,0.0634,0.0783
N186F,0.115,–,–,0.0575,–,–,–,0.107,–,–
N186T,–,–,0.0566,0.0585,–,–,–,0.105,0.0728,0.0793
S60W,0.125,0.0728,0.0577,–,0.133,0.0697,0.0618,0.0957,0.0665,0.0944

# Same assay, conditions: temperature: 34 °C; time window: 0-4 h after rhamnose induction
Variant,area with substrate ENLYFQV,area with substrate ENLYFQT,area with substrate ENLYFQK,area with substrate ENLYFQN,area with substrate ENLYFQA,area with substrate ENLYFQE,area with substrate ENLYFQY,area with substrate ENLYFQD,area with substrate ENLYFQF,area with substrate ENLYFQQ
S171K,0.0464,–,–,–,–,–,–,–,–,–
E195H,0.0509,0.0429,–,–,–,–,–,–,–,–
F6N,–,0.0643,0.0518,0.0734,–,–,–,–,–,–
S124C,0.0576,0.0938,0.0601,0.108,–,–,–,–,–,–
T119A,–,0.0729,0.0463,–,0.0885,0.0626,0.0847,–,–,–
T119G,–,–,–,–,–,–,–,0.0756,–,–
S209A,–,0.0821,–,–,–,–,–,0.0653,–,–
S209E,–,–,–,–,–,–,0.0586,–,0.069,–
N193K,–,–,–,0.082,–,–,–,0.0865,0.0839,–
P94N,0.0771,–,–,0.0702,–,0.0471,–,–,0.0743,–
P93D,–,–,–,0.0764,–,–,–,–,0.0658,0.0726
P93L,–,0.0712,–,0.0818,–,–,–,–,0.0487,–
G8L,–,–,–,–,–,–,0.0692,–,–,–
R81A,0.0666,0.0757,0.062,–,–,–,0.0787,–,0.0643,–
S154A,0.0542,0.0564,0.0244,0.0707,–,–,–,0.0681,0.0724,–
S154N,–,0.0787,–,–,–,–,–,–,–,–
S154D,0.0499,–,–,–,–,–,–,–,–,–
S154V,0.0638,0.07,0.0729,0.0715,–,–,–,–,–,–

Variant,area with substrate ENLYFQV,area with substrate ENLYFQT,area with substrate ENLYFQK,area with substrate ENLYFQN,area with substrate ENLYFQA,area with substrate ENLYFQE,area with substrate ENLYFQY,area with substrate ENLYFQD,area with substrate ENLYFQF,area with substrate ENLYFQQ
N177G,0.0323,0.0659,0.056,–,–,–,–,–,–,–
N177T,–,0.0773,0.0644,0.124,–,0.0709,0.101,0.0861,–,–
Y12R,–,0.0637,0.0654,0.0871,–,–,–,–,–,–
L61F,–,–,0.0657,–,0.107,–,–,–,0.146,–
L61T,–,–,0.0709,–,–,–,0.0679,0.0819,–,–
L99V,–,0.0576,–,–,–,–,0.109,–,–,0.0734
I84V,0.0437,0.0614,0.067,0.0791,–,–,0.0735,0.0752,0.0956,0.0505
T159P,–,0.0652,–,–,–,–,–,–,–,–
T132K,–,–,–,0.0662,–,–,0.0491,–,0.0576,–
T132N,–,0.0553,0.0656,–,–,0.0682,0.0787,–,0.0654,0.0723
L77R,–,–,–,0.057,–,–,–,–,–,–
D79E,–,0.0705,–,–,–,0.0693,0.114,–,–,–
G2I,0.0497,–,–,0.109,–,–,–,0.0986,–,–
V67G,–,0.0547,0.032,0.048,–,–,–,–,–,–
Q59H,0.0605,0.0635,0.0696,0.0845,0.101,–,–,0.0659,–,–
N186F,–,–,–,0.103,–,–,–,–,0.0728,–
N186T,–,–,–,0.0858,0.0973,–,0.0626,–,–,–
S60W,–,0.0629,0.0525,0.0688,–,–,0.0799,0.0695,0.0822,–
